Data published in PubChem BioAssay AID759 (NMMLSC, 2007).
The campaign covered roughly 190,000 compounds. About 270 (0.14%) were called active. Inconclusive results, whose numbers are uncertain, are shown with a selection of clear calls.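 Rule for the calls: active = GTP binding activity at least 20% away from the 100% baseline, either lowered as inhibitor or raised as activator; inconclusive = flagged as likely green fluorescent, judged across all proteins in the well; inactive = the rest.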

What follows are compounds tested against GTPase HRas (Homo sapiens) (UniProt P01112) (assay: HRas wt fluorescent GTP binding changes, either direction – biochemical, wildtype, bead-based flow cytometry, multiplex, primary screen (AID 759;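 note: 0% = unlabeled GTP competition control and 100% = no-compound control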)). Details: GST-Ras wt beads, Bodipy-FL-GTP binding, at 10 µM, actives lie on both sides.
Sequence of UniProt P01112 (P01112 whole entry, looked up): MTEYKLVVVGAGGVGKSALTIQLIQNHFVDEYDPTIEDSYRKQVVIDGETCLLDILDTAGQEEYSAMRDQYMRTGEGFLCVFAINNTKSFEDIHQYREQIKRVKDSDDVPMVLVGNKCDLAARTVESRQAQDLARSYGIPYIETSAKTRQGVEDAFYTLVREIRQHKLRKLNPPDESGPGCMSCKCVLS

Structure (SMILES) | GTP binding activity
O=[N+]([O-])c1cc(-c2nc(-c3ccncc3)no2)cc([N+](=O)[O-])c1 | inactive: 101%
Cc1ccc2c(c1)[C@@H](O)C[C@@H](C)N2N=O | inconclusive: 103%
C/C(N)=C(/C#N)C(=O)CSc1nc2ccccc2n1CC(C)C | inactive: 100%
COc1ccc(C)cc1S(=O)(=O)N(CC(=O)O)c1ccc(F)cc1 | inconclusive: 92%
CC(C)(C#CC(O)(c1ccccc1)c1ccccc1)N1CCCC1 | inactive: 92%
COc1cccc(NC(=S)NNC(=O)Cn2nc([N+](=O)[O-])cc2C)c1 | inconclusive: 93%
O=C(NCC(=O)N1CC(O)CC1C(=O)N1CC(O)CC1C(=O)OCc1ccccc1)OCc1ccccc1 (configuration not stated) | inactive: 99%
O=C(O)c1ccc(CSc2nnc(Cc3ccccc3)o2)cc1 | inconclusive: 97%
O=C(COc1ccc2ccccc2c1)NCCc1ccc2c(c1)OCCO2 | inconclusive: 87%
CCCCNC(=O)CN1C(=O)c2cccc(N)c2C1=O | inconclusive: 94%
Cc1cccc(-n2c(Cc3cc(=O)[nH]c(=O)[nH]3)nnc2SCC(=O)Nc2cccc(C(F)(F)F)c2)c1 | inactive: 102%
C=CCNC(=O)COc1ccc(S(=O)(=O)N2CCCC2)cc1 | inconclusive: 94%
CCc1c(C)nc2c(C#N)c[nH]n2c1=O | inconclusive: 83%
CCCC(C(=O)NC1=NCCS1)c1ccccc1 (configuration not stated) | inconclusive: 97%
O=C(NCCC1=CCCCC1)C(c1ccccc1)c1ccccc1 | inconclusive: 93%
O=C(CNC(=S)N(CCCN1CCOCC1)Cc1cccs1)N1CCCCCC1 | inactive: 100%
N#CC1=C(N)Oc2c(ccc3ccccc23)C1c1ccsc1 (configuration not stated) | inconclusive: 96%
COCCn1c(SCC(=O)Nc2cccc(C)c2)nnc1C(C)C | inconclusive: 102%
COc1ccc(-n2cc(-c3ccccc3)c3c(=O)[nH]cnc32)cc1 | inactive: 108%
Cc1cc(N2CCN(C(=O)c3ccco3)CC2)n2nc(-c3cccc(F)c3)cc2n1 | inconclusive: 101%
Cc1[nH]c2ccccc2c1/C=C/C(=O)c1ccccc1 | inconclusive: 120%
O=C1C(Cc2cccc([N+](=O)[O-])c2)SC(=Nc2ccccc2)N1c1ccccc1 (configuration not stated) | inactive: 98%
CC(Sc1ccsc1[N+](=O)[O-])C(=O)N1CCN(c2ccccn2)CC1 (configuration not stated) | inconclusive: 92%

Structure (SMILES) | GTP binding activity
NS(=O)(=O)c1ccc(CNC(=O)C23CC4CC(CC(C4)C2)C3)cc1 | inconclusive: 103%
COc1ccc(-n2c(SCc3ccc([N+](=O)[O-])cc3)nnc2-c2ccc(C)cc2)cc1 | inactive: 99%
COC(=O)c1cn(-c2ccc(Cl)cc2)c(=O)c2ccccc12 | inactive: 101%
c1csc(-c2ccnc3ncnn23)c1 | inconclusive: 91%
O=C(O)CCC(=O)Nc1ccc(C(=O)OC2CCCCC2)cc1 | inactive: 99%
Clc1cccc(NCc2cn3cccnc3n2)c1 | inactive: 103%
O=C(OCC(=O)c1ccc(Cl)cc1Cl)c1ccc2c(c1)C(=O)N(c1cccc3ncccc13)C2=O | inconclusive: 85%
Cc1ccccc1Cc1ccc(Cl)nn1 | inactive: 98%
O=[N+]([O-])c1cc(-c2ncccn2)c([N+](=O)[O-])s1 | inactive: 96%
Cc1ccccc1C(=O)N1CCN(c2ccc(NC(=O)c3ccccc3[N+](=O)[O-])cc2)CC1 | inactive: 95%
COC(=O)CNC(c1ccccc1Cl)c1cc(Br)ccc1NC(=O)CCN1CCOCC1 (configuration not stated) | inconclusive: 104%
O=C(C1CCCN(S(=O)(=O)c2cccc3nonc23)C1)N1CCC(Cc2ccccc2)CC1 (configuration not stated) | inactive: 101%
CCOC(=O)CN1C(=O)C(O)=C(C(C)=O)C1c1ccc(F)cc1 (configuration not stated) | inconclusive: 102%
Oc1c(C(c2ccccn2)N2CCOCC2)ccc2cccnc12 (configuration not stated) | inconclusive: 214%
C/C(N)=C(/C#N)C(=O)COC(=O)c1ccccc1O | inconclusive: 103%
CC(C)OCCCn1c(=NC(=O)c2ccncc2)c(C#N)cc2c(=O)n3ccccc3nc21 | inconclusive: 226%
COC(=O)N/N=C(\C)c1cccc(C(F)(F)F)c1 | inconclusive: 94%
O=c1c2ccccc2nnn1COc1ccc(F)cc1Cl | inconclusive: 86%
Nc1nnc(-c2cc3c(ccc4ccccc43)oc2=O)s1 | inconclusive: 87%
COc1ccc(Br)cc1CNC(=O)C1CCN(S(=O)(=O)N2CCC(C)CC2)CC1 | inactive: 101%
Cc1ccc(-n2nnc(-c3cc4ccccc4nc3Cl)n2)cc1 | inconclusive: 91%
COc1ccc(Cc2nnc(NC(=O)c3ccco3)s2)cc1 | inconclusive: 103%
COc1cc(C(=O)N(CCc2ccccc2)C2CC3CCC(C2)N3C)cc(OC)c1OC (configuration not stated) | inconclusive: 106%

Structure (SMILES) | GTP binding activity
Cc1c(Cl)cccc1NC(=O)CC1SCCNC1=O (configuration not stated) | inconclusive: 105%
CCn1cnc2c1c(=O)n(CC(=O)Nc1cc(C)on1)c(=O)n2Cc1ccccc1 | inconclusive: 109%
CC(=O)Nc1ccc(NC2=C(Cl)C(=O)c3ccccc3C2=O)cc1 | inconclusive: 93%
O=C1/C(=C/c2cccnc2)SC(=S)N1CC1CCCO1 (configuration not stated) | inconclusive: 98%
CCNC(=O)n1nccc1C(C)Oc1cccc(C(F)(F)F)c1 (configuration not stated) | inactive: 102%
COc1cccc(/C=N/n2c(N)c(S(=O)(=O)c3cccs3)c3nc4ccccc4nc32)c1OC | inactive: 84%
CCc1ccc(NC(=O)CSc2nc3n[nH]c(C)c3c(=N)n2-c2cccc(OC)c2)cc1 | inconclusive: 88%
Cc1cc(=O)oc2ccc(OCC(=O)N3CCC(C)CC3)cc12 | inconclusive: 104%
Cc1ccc(C)c(Cn2c(C(C)O)nc3ccccc32)c1 (configuration not stated) | inconclusive: 100%
COc1ccc(OC)c(-c2c3cc(O)c(=O)cc-3oc3cc(O)c(O)cc23)c1 | inconclusive: 182%
CC(CCc1ccccc1)NC(=O)Cc1cccs1 (configuration not stated) | inactive: 100%
Cc1cc([N+](=O)[O-])nn1CCCC(=O)NC1CCCCC1 | inactive: 101%
Cc1cc(C)n(CC(C)NCc2cn[nH]c2-c2ccc(C)c(C)c2)n1 (configuration not stated) | inactive: 97%
Cc1cc(=O)[nH]c(N/N=C/c2c(C)nn(-c3ccccc3)c2C)n1 | inconclusive: 90%
O=C(CSc1nnc(SCc2ccc(Cl)cc2)s1)c1ccc2c(c1)OCO2 | inconclusive: 94%
COc1cc(/C=C/C(=O)OCC(=O)Nc2ccc(S(=O)(=O)N3CCCC3)cc2)ccc1O | inconclusive: 96%
CCOC(=O)C(/C=C(\C#N)C(=O)OCC)=C(/N)N1CCN(c2ccccc2)CC1 | inconclusive: 101%
CCC(C)(C)NC(=O)CN(Cc1ccc2c(c1)OCO2)C(=O)CCC(=O)Nc1ccccn1 | inconclusive: 103%
CCN(CC)CCN1C(=O)c2ccccc2NC1c1cc(OC)c(OC)c(OC)c1 (configuration not stated) | inconclusive: 111%
Cc1cc(C)n(C(=O)Cn2nc([N+](=O)[O-])cc2C)n1 | inconclusive: 91%
COc1ccc2nc(NC(=O)C(NS(=O)(=O)c3cccc4nsnc34)C(C)C)sc2c1 (configuration not stated) | inconclusive: 102%
Cc1ccccc1OCCn1cnc2cc([N+](=O)[O-])ccc2c1=O | inconclusive: 87%
CC(NC(=O)c1ccc(C23CC4CC(CC(C4)C2)C3)cc1)C(=O)O (configuration not stated) | inactive: 100%

Structure (SMILES) | GTP binding activity
Cc1ccc(/C=C2\SC(=S)N(CC(=O)Nc3cccnc3)C2=O)cc1 | inactive: 94%
COc1cc2ncnc(NCc3ccco3)c2cc1OC | inconclusive: 95%
O=C(Nc1nnc(-c2ccco2)s1)C1CCCCC1 | inconclusive: 103%
CNC(=O)COC(=O)c1cc(F)c(F)cc1Cl | inconclusive: 103%
C=CCNc1nc(NC(C)(C)CO)nc(OCC)n1 | inconclusive: 108%
COC(=O)C(=O)/C=C(\O)c1ccc(C)cc1 | inconclusive: 95%
COc1cc2nc(/C=C/c3ccc(N(C)C)cc3)sc2cc1SC | inconclusive: 146%
CCC(C)(C)c1ccc(OCCCC[n+]2ccccc2)c(C(C)(C)CC)c1 | inconclusive: 115%
Clc1ccccc1-c1ccc(/C=N/Nc2nncc(-c3ccccc3)n2)o1 | inactive: 91%
CCSc1nnc(Cc2cc(=O)[nH]c(=O)[nH]2)n1-c1ccc(F)cc1 | inconclusive: 103%
Cc1ccc(C2CC(=O)N(c3ccc(F)cc3)C3=C2C(=O)CCC3)cc1 (configuration not stated) | inconclusive: 104%
Cc1ccccc1N(CC(=O)N/N=C/c1ccccc1Cl)C(=O)c1ccccc1 | inconclusive: 139%
COc1ccccc1N(C)S(=O)(=O)c1ccc(C(=O)Nc2nc(C)cs2)cc1 | inactive: 96%
Brc1ccc(Nc2c3c(nc4ncnn24)CCC3)cc1 | inconclusive: 93%
COCCOC(=O)c1c(C)oc2ccc(OC(=O)c3ccc4c(c3)OCO4)cc12 | inactive: 83%
COc1ccc(C(=O)C2CCCN(Cc3cccc4c3OCO4)C2)cc1OC (configuration not stated) | inactive: 98%
Cc1nn(CCc2n[nH]c(=S)n2C)c(C)c1Br | inconclusive: 102%
Cc1cc(NC(=O)CSc2nc3cc4c(cc3c(=O)n2CCc2ccccc2)OCO4)no1 | inconclusive: 105%
CCCN1CCN(CCCNC(=O)C2CCCN(c3nc4ccc(OCC)cc4s3)C2)CC1 (configuration not stated) | inconclusive: 101%
Fc1ccc(-c2[nH]ncc2CN(CC2CCC2)CC2CCCO2)c(F)c1 (configuration not stated) | inactive: 97%
CC(C)CC(=O)NC(=S)Nc1ccccc1C(=O)Nc1ccccc1 | inactive: 96%
Cc1ccc(O)c(N=Cc2cc(Cc3ccccc3)cc([N+](=O)[O-])c2O)c1 | inactive: 82%
Cc1cccc(NC(=O)CC(C)(C)C)c1 | inconclusive: 101%
